Consider 110 compounds from PubChem BioAssay AID1240 (Sanford-Burnham Center for Chemical Genomics, 2008).

The campaign covered roughly 50,000 compounds. About 800 (1.6%) showed an effect of 50% or more. The list shows a part of the results.

The assay addresses Bcl-2-like protein 10 (Homo sapiens) (UniProt Q9HD36). Put plainly: TR3 peptide-Bcl-B binding displacers, biochemical primary FP assay, phenotype converters (AID 1240).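 Also: 0% = Bcl-B with tracer peptide and DMSO and 100% = tracer peptide lacking Bcl-B.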 The settings on record: GST-Bcl-B / FITC-TR3 peptide fluorescence polarization; stronger effect = higher value; compound at 3.75 mg/L. (In fluorescence polarisation assays a small probe gives low polarisation when free and higher when bound to something large.)
UniProt Q9HD36, sequence (Q9HD36 whole entry, looked up): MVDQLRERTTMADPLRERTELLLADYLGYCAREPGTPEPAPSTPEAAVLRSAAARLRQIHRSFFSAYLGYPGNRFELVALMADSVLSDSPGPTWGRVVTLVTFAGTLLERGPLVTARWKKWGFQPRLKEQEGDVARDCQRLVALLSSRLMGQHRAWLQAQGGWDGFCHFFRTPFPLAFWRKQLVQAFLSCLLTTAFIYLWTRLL
In the case of `O=C(NN1C(=O)/C(=C/c2ccccc2)SC1=S)c1cccc(Cl)c1`, the displacement was -3%. `O=C(/C=C/c1ccccc1)Nc1nnc(-c2cccs2)s1`: the displacement amounted to 1.4%. Take `COc1cccc(/C=N/NC(=O)CCc2c(C)n[nH]c2C)c1`: the displacement is -2.6%. Turning to `Cc1cc(N2CCOCC2)c2c(N)ccc(C)c2n1`, the displacement was determined as 17.3%.

Turning to `CCOC(=O)CCC(C(=O)C(C)C)C(=O)C(C)(C)OC` (stereo not given), the displacement amounted to 3.9%. Take `COc1ccc(/C=C/C(=O)Nc2ccc(C)cc2C)cc1OC`: the displacement is -3%. To `COc1ccc(N2C(=O)CC(SC(=N)N3N=C(c4ccc(C)cc4)CC3c3ccc(Br)cc3)C2=O)cc1` (stereo not given) belongs -1.8%; to `CCOC(=O)c1cc2c(ccc3oc4c(c32)CCCC4)oc1=O`, 1.8%. Regarding `CCOc1ccc(NC(=O)C2CC2(c2ccccc2C)c2ccccc2C)cc1` (stereo not given), the displacement came out at 0.1%. For `CN(C)c1ccc(NC(=O)COc2ccc3ccccc3c2)cc1`, the displacement is 5.6%.

Take `COc1ccccc1C1CC(c2c(-c3ccccc3)c3cc(Br)ccc3[nH]c2=O)=NO1` (stereo not given): the displacement stood at 9.2%. To `Cc1c(C(=O)N(Cc2ccccc2)Cc2ccccc2)cccc1[N+](=O)[O-]` belongs -12.3%; to `CCOc1cc(/C=c2\sc3n(c2=O)C(c2cccc(OC)c2)C(C(=O)Nc2ccccc2)=C(C)N=3)ccc1O` (stereo not given), 12.6%; to `O=C(COc1ccc(Cl)cc1)N1CCN(C(=O)c2ccncc2)CC1`, 13.8%. Take `COc1ccc(NS(=O)(=O)c2cc(C(=O)O)ccc2Br)cc1`: the displacement is -5.8%. Take `O=C(Nc1ccccc1C(=O)NC(Cc1ccccc1)C(=O)O)c1ccccc1` (stereo not given): the displacement was determined as 12.1%. Take `COc1ccccc1C(=S)N1CCOCC1`: the displacement was 8.6%. As to `COc1cc(C#CC#CCN2CCOCC2)ccc1O`, the displacement was 5.8%. With `O=C(NCc1ccc(Cl)cc1)c1cccc(I)c1`, the displacement is 10.3%. As to `Cc1ccc(N2C(=O)CC(NC3CCCC(C)C3C)C2=O)cc1` (stereo not given), the displacement was determined as 9.7%. On to `CC(=O)Nc1ccccc1NC(=O)COc1ccc(Cl)cc1Br`, for which the displacement was -1.3%. Take `Cc1nnc(C)n1/N=C\c1ccc(F)cc1`: the displacement is -0.6%. Turning to `COc1ccc(C(=O)NCCSc2ccc(C)cc2)cc1`, the displacement was -8.2%. Consider `O=C(c1cccc(F)c1)N1CCN(c2cc(N3CCCC3)c(F)cc2[N+](=O)[O-])CC1`, for which the displacement was 6.6%. In the case of `Cc1[nH]n(-c2ccc(Br)cc2)c(=O)c1C=Nc1ccc(S(=O)(=O)Nc2nccs2)cc1`, the displacement was determined as 8.9%. With `C#CCOc1nc(N(c2ccccc2)c2ccccc2)nc(-n2c(C)nc3ccccc32)n1`, the displacement was -2.9%. In the case of `COc1ccc(-c2c(C#N)c(N)nc3c2CCCCC3)cc1OC`, the displacement is -2.3%. Regarding `O=C(C[n+]1ccc(C(=O)NCc2ccccc2)cc1)c1ccc(-c2ccccc2)cc1`, the displacement came to 11.1%.

Regarding `CC1CCN(CCCCOc2ccc(F)cc2)CC1`, the displacement is -8.5%. Consider `Cc1cccc(N2C(=O)C3C(c4ccccc4)C=CC(c4ccccc4)C3C2=O)c1C` (stereo not given), for which the displacement was -0.2%. Take `CC(=O)N1C(=O)c2cccc3cccc1c23`: the displacement is -9%. Regarding `O=C(Oc1ccc(/C=N/NC(=O)C(O)c2ccccc2)cc1)c1cccc2ccccc12` (stereo not given), the displacement was found to be 2.4%. Turning to `O=C(Cn1c(C(=O)c2ccccc2)nc2ccccc21)c1ccc(Br)cc1`, the displacement is -4.7%. For `Cc1ccc2c(N)c(C(=O)c3ccccc3)sc2n1`, the displacement worked out at 4.6%. Consider `COc1ccc(C(=O)Nc2cc(C(F)(F)F)cc(C(F)(F)F)c2)cc1Cl`, for which the displacement stood at 7.8%. `CCOc1ccc(N2C(=O)S/C(=C\c3ccc(C)o3)C2=O)cc1`: the displacement was determined as 108%.

With `CCOc1cccc(C(=O)Nc2nnc(COc3ccc(Cl)cc3)s2)c1`, the displacement was determined as 13%. As for `COc1ccccc1NC(=O)/C=C/c1cc(Br)cs1`, the displacement was 8.2%.

Regarding `CCCC(=NC(C)C)C1=C(O)CC(C)(C)CC1=O`, the displacement was 5.1%. As for `C=CCNC(=O)C1CC(=O)N(c2ccc(Cl)cc2)C1` (stereo not given), the figure is 6.8%; as for `O=C1CC(N2CCN(c3ccc(Cl)cc3)CC2)C(=O)N1c1cccc(Cl)c1` (stereo not given), -4.6%; as for `O=C(/C=C/c1ccc(F)cc1)Nc1nc(-c2ccccc2)cs1`, -2%. As for `COC(=O)CN(c1cc(OC)ccc1OC)S(=O)(=O)c1ccccc1`, the figure is -0.9%.

Regarding `COc1ccc(CCNC(=O)/C=C/c2ccc3c(c2)OCO3)cc1OC`, the displacement was -3.5%. On to `COc1ccc(Cl)cc1NC(=O)C1=C(C)NC(=O)NC1c1ccc([N+](=O)[O-])cc1` (stereo not given), for which the displacement turned out to be 13.6%. In the case of `C(=Nc1ccc2ccccc2c1)c1cccnc1`, the displacement was -4.4%. Consider `COCCCNS(=O)(=O)c1ccc([N+](=O)[O-])cc1`, for which the displacement was -4.5%. Regarding `COc1ccc(S(=O)(=O)NC2CCS(=O)(=O)C2)cc1` (stereo not given), the displacement is -2.2%. As for `CCOc1ccc(N2C(=O)NC(=O)/C(=C/c3ccc(-c4ccc(C(=O)O)c(Cl)c4)o3)C2=O)cc1`, the figure is -25.8%; as for `COc1cc(OC)c(OC)cc1CN1CCN(Cc2ccc(C)cc2C)CC1`, -4%. `Cc1ccc(S(=O)(=O)NC(=O)Oc2ccc3oc(=O)sc3c2)cc1`: the displacement came out at 22.7%. `Cc1ccc(NC(=O)C2CC2(c2ccccc2)c2ccccc2)cc1C` (stereo not given): the displacement is -4%. To `CCn1c(O)c(/C=N/N=C/c2ccccc2)c2ccc(C3=NNC(=O)CC3)cc21` belongs 119%. As for `O=S(=O)(NCc1ccc2c(c1)OCO2)c1ccc(Cl)cc1`, the figure is -2.8%; as for `C=CCOc1cccc(/C=N/NC(=O)C(=O)NCc2ccccn2)c1`, -1.4%; as for `Cc1ccc2nc(NC(=O)c3ccc4c(c3)OCO4)sc2c1`, 0.7%. On to `CN(Cc1ccccc1)C(=O)c1cc2nc(-c3ccccc3)cc(-c3ccccc3)n2n1`, for which the displacement is 11.4%. As to `O=C(Nc1ccc(Cl)cc1)C1CC1(c1ccccc1)c1ccccc1` (stereo not given), the displacement was -2.9%. On to `O=C(Nc1nnc(-c2cccs2)s1)c1cccc2ccccc12`, for which the displacement was 9.2%. For the compound `COc1ccc(C(=O)Nc2ccc(OC)c(OC)c2)cc1`, the displacement is -11.6%. Regarding `CCOC(=O)c1c(NC(=O)c2ccccc2Cl)sc2c1CCCCC2`, the displacement came to 4.4%. For the compound `CCOc1ccc(C(NC=O)c2ccc(OC)c(OC)c2)cc1` (stereo not given), the displacement is -4.3%.

As to `O=C(NC(=S)N1CCOCC1)c1ccc(F)cc1`, the displacement turned out to be 6.3%. Consider `N#C/C(=C(/O)c1ccc([N+](=O)[O-])cc1)c1nc2ccccc2[nH]1`, for which the displacement amounted to 5%.

For `Cc1ccc(NC(=O)/C=C/c2cccc([N+](=O)[O-])c2)cc1`, the displacement is -2.4%. For the compound `CCOc1cccc(NC(=O)/C(C#N)=C/c2cn(CC(=O)Nc3ccccc3)c3ccccc23)c1`, the displacement was 104%. In the case of `CC(=O)c1c(OC(=O)c2ccccc2)ccnc1C(F)(F)F`, the displacement is 1.8%. As for `CCOC(=O)NC(NC(=S)Nc1c(C)n(C)n(-c2ccccc2)c1=O)C(Cl)(Cl)Cl` (stereo not given), the displacement is -3.8%. `CN(C)c1ccc(/C=C2\C(=O)NC(=S)N(c3ccc(Cl)c(Cl)c3)C2=O)cc1`: the displacement was -4.8%. Regarding `Cc1c(C=O)c(=O)oc2c3c4c(cc12)CCCN4CCC3`, the displacement was determined as 148%. On to `CC(Oc1ccccc1)C(=O)Nc1cccc(NC(=O)C(C)Oc2ccccc2)n1` (stereo not given), for which the displacement stood at 15.9%. On to `CC(C)(C)C(=O)Nc1ccc(C(=O)Oc2ccccc2)c(O)c1`, for which the displacement is -10.3%. Take `O=C1C2ON(c3ccccc3)C(c3cccc(Br)c3)C2C(=O)N1c1ccccc1` (stereo not given): the displacement came out at 11.2%. As for `C/C(Cn1nnc([N+](=O)[O-])n1)=N\NC(=O)c1ccc(Cl)c(Cl)c1`, the displacement is -0.9%. As to `O=C1CSC(=S)N1Cc1ccc(Cl)c(Cl)c1`, the displacement was 11.7%. As for `CSc1ccc(/C=N/S(=O)(=O)CCc2ccccc2)cc1`, the figure is -7.7%; as for `Cc1ccc(/C(CCN(C)C)=N/O)cc1`, 0.9%.

Consider `CCOc1ccc(S(=O)(=O)N(CC(=O)Nc2cc(C)cc(C)c2)c2ccc(C)cc2)cc1`, for which the displacement stood at 10.2%.

Regarding `O=C(CN1CCOCC1)Nc1ccc(-c2nc3ccccc3[nH]2)cc1`, the displacement stood at 12.1%. Consider `CC(=O)c1ccc(NC(=O)COc2ccc([N+](=O)[O-])cc2)cc1`, for which the displacement came out at 3.9%. For `O=C1C(=O)N(c2cccnc2)C(c2ccccc2Cl)/C1=C(\O)c1ccc(Cl)cc1` (stereo not given), the displacement was -6.5%.

As for `COc1cc(C2C3=C(CC(C)(C)CC3=O)OC3=C2C(=O)CC(C)(C)C3)cc(OC)c1O`, the displacement was -3.5%. For `COc1ccc(C(=O)Nc2nnc(CCS(=O)(=O)c3ccc4ccccc4c3)s2)cc1OC`, the displacement came to 3.8%. In the case of `CCN(CC)S(=O)(=O)c1ccc(Cl)c(C(=O)Nc2ccc(OC)cc2)c1`, the displacement is -20.3%. Regarding `C=CCc1cc(/C=C2\C(=O)NC(=O)N(c3cc(C)cc(C)c3)C2=O)cc(OCC)c1OCC(=O)O`, the displacement is -11.7%. With `O=C(COc1ccc2ccccc2c1)N/N=C\c1cc(O)c(O)c(Br)c1`, the displacement worked out at 6.6%.

As for `FC(F)(F)c1cccc(-c2nnc3ccc4ccccc4n23)c1`, the displacement is -3.3%. On to `O=C(COc1ccc(Br)cc1)Nc1ccc(F)c([N+](=O)[O-])c1`, for which the displacement was found to be 2%. Consider `O=C(/C=C/c1ccc(-c2ccc(Cl)cc2Cl)o1)c1ccc(F)cc1`, for which the displacement worked out at 8.2%. As to `Cc1cc(=O)oc2c(CN3CCN(CCO)CC3)c(O)ccc12`, the displacement was -9%. As for `CC1(C)Nc2ccccc2N(Cc2ccc(Cl)c(Cl)c2)C1=O`, the displacement is -7.9%. `CC(=O)c1c(C(=O)O)cccc1C(=O)O`: the displacement came out at 4.4%. To `O=C1NN(c2ccccc2)C(=O)/C1=C\c1ccc(Cl)cc1` belongs 11.1%; to `Cc1ccccc1NCC(=O)N/N=C\c1cc(Br)cc(Br)c1O`, -7.8%. As for `CCOC(=O)c1ccc(Nc2ncnc3c2cnn3-c2ccccc2)cc1`, the figure is 3%; as for `CN(C1=C(Cl)C(=O)N(c2ccccc2)C1=O)c1ccccc1`, 3.9%. For the compound `CCOc1nc(-c2ccccc2)c2cc(Br)ccc2n1`, the displacement was determined as 20.5%.

With `COc1ccc(C(C)(C#N)CC#N)cc1` (stereo not given), the displacement was found to be 1.8%. As for `Cc1cc2c(cc1C)NC(CC(=O)Nc1ccccc1C(F)(F)F)C(=O)N2` (stereo not given), the figure is -13%. On to `COc1ccc(/C=C2\C=C(c3ccc(Cl)cc3)OC2=O)c(C)c1`, for which the displacement was found to be 0%. As for `CCOC(=O)C1=C(O)/C(=C/c2ccc(Cl)cc2Cl)SC1=Nc1cccc(Cl)c1`, the displacement is -3.9%. As for `CCC(CC)=NNC(=O)C(=O)NC(C)C`, the figure is -10.7%; as for `CC1CCN(c2nc3ccccc3n3cnnc23)CC1`, 6.3%. Take `Cc1cc(C)c(C#N)c(SCC(=O)Nc2ccc(Cl)cc2)n1`: the displacement is -6%. With `NC(=O)c1c(NC(=O)C2c3ccccc3Oc3ccccc32)sc2c1CCCCCC2`, the displacement was -4.7%. Turning to `COc1ccc(NC(=O)C(=O)N/N=C/c2ccc(OC)cc2OC)cc1`, the displacement was 12.4%. In the case of `O=C(Nc1ccccc1C(=O)O)c1ccc2c(c1)C(=O)N(CC1CCCO1)C2=O` (stereo not given), the displacement came to 3.9%. With `CCc1cc(C=C(Cl)Cl)oc(=O)c1C`, the displacement worked out at 0%. For the compound `O=C(Nc1cccc2nsnc12)c1cccc([N+](=O)[O-])c1`, the displacement was found to be 2.4%.

On to `CCOC(=O)COc1ccc2c(oc(=O)c3ccccc32)c1C`, for which the displacement amounted to 8.2%.
